Measured values as given in the supplement of paper PMC10441789.
The other results are listed elsewhere or left out. Antibody binding of pooled human sera (four to six donors per pool; dilution not stated) to peptides of the Trypanosoma cruzi antigen TSSA on microarrays. Quantile-normalised fluorescence in arbitrary units, mean of duplicate arrays; higher = more binding. No active / inactive call. The uninfected pools are read here as the healthy donors of the same country. The strongest signals lie near the top of the scale (about 60,000).

Legend:
Assay in all cases: antibody binding signal (normalised fluorescence) (arbitrary fluorescence units); higher = stronger serum antibody binding to peptide
[1] = test system: pooled sera of chronic Chagas disease patients, Bolivia
Procedure: (§1)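 Microarray of 15-residue peptides over residues 30-55 of Trypanosoma cruzi TSSAII, each with 1 to 10 substitutions at naturally variable positions, probed with one serum pool per country.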

[2] = test system: pooled sera of chronic Chagas disease patients, Brazil
Procedure: as §1

[3] = test system: pooled sera of chronic Chagas disease patients, Colombia
Procedure: as §1

[4] = test system: pooled sera of chronic Chagas disease patients, Mexico
Procedure: as §1

[5] = test system: pooled sera of chronic Chagas disease patients, USA
Procedure: as §1

[6] = test system: pooled sera of uninfected people, Argentina
Procedure: as §1

[7] = test system: pooled sera of uninfected people, Bolivia
Procedure: as §1

[8] = test system: pooled sera of uninfected people, Brazil
Procedure: as §1

[9] = test system: pooled sera of uninfected people, Colombia
Procedure: as §1

[10] = test system: pooled sera of uninfected people, Mexico
Procedure: as §1

[11] = test system: pooled sera of uninfected people, USA
Procedure: as §1

Sequence | antibody binding signal [1] | antibody binding signal [2] | antibody binding signal [3] | antibody binding signal [4] | antibody binding signal [5] | antibody binding signal [6] | antibody binding signal [7] | antibody binding signal [8] | antibody binding signal [9] | antibody binding signal [10] | antibody binding signal [11]
NKAAAGGTPSQSGAS | 249 | 2120 | 3650 | 405 | 1230 | 753 | 867 | 1770 | 368 | 637 | 1120
GKDKKAAAGETPSQP | 406 | 17600 | 1170 | 898 | 1180 | 136 | 90.3 | 123 | 150 | 92.8 | 93.8
EKKPATGETPSQSGA | 25500 | 32600 | 311 | 230 | 22900 | 257 | 704 | 381 | 197 | 1810 | 798
TPPSGKDKKTATGGT | 326 | 683 | 549 | 38700 | 1150 | 171 | 188 | 279 | 193 | 75.4 | 115
GTENKTAAGGAPSPS | 481 | 566 | 5770 | 1030 | 620 | 444 | 436 | 390 | 302 | 432 | 201
GTDNKTATGGTPSQS | 1080 | 27300 | 1080 | 652 | 667 | 430 | 789 | 2260 | 205 | 627 | 199
GTENKAAAGEAPSQS | 16900 | 24300 | 1610 | 2290 | 12900 | 89.5 | 373 | 109 | 120 | 81.5 | 90.5
SGTDNKTATGGAPSQ | 688 | 43000 | 567 | 489 | 562 | 313 | 777 | 1500 | 191 | 223 | 262
PPSGTENKAAAGETP | 38700 | 45500 | 297 | 2670 | 11700 | 1600 | 522 | 212 | 308 | 262 | 543
PSGTDNKAAAGGTPS | 3260 | 42200 | 2900 | 2060 | 1590 | 211 | 665 | 2720 | 467 | 336 | 267
DKKPATGEAPSPPGA | 40600 | 45200 | 315 | 301 | 40500 | 882 | 543 | 290 | 246 | 181 | 143
TPPSGTDKKTAAGET | 11700 | 26700 | 1970 | 37600 | 1450 | 228 | 239 | 315 | 1490 | 628 | 155
GKDNKAATGGTPSPS | 415 | 894 | 1920 | 2550 | 2000 | 142 | 246 | 196 | 198 | 89.2 | 81.7
SGKDNKTATGEAPSP | 25200 | 15900 | 1920 | 376 | 21400 | 299 | 228 | 179 | 417 | 96.7 | 155
KAATGEAPSQSGASS | 32400 | 33100 | 111 | 160 | 24200 | 415 | 208 | 169 | 171 | 154 | 167
TPPSGTDNKAAAGEA | 42400 | 48400 | 2100 | 11700 | 11100 | 644 | 512 | 1100 | 161 | 174 | 200
SGKDKKPATGEAPSQ | 16200 | 43700 | 417 | 653 | 31900 | 789 | 307 | 156 | 729 | 82.6 | 133
GTENKAAAGETPSQS | 1780 | 15500 | 5140 | 7330 | 4410 | 119 | 468 | 142 | 234 | 125 | 124
ENKPAAGGTPSPSGA | 3440 | 983 | 1620 | 439 | 439 | 298 | 681 | 1020 | 574 | 179 | 246
DNKPATGEAPSPSGA | 48200 | 48600 | 275 | 172 | 41800 | 935 | 504 | 639 | 141 | 212 | 122
DKKTATGGTPSPSGA | 470 | 510 | 4070 | 515 | 1640 | 302 | 113 | 309 | 676 | 214 | 153
KPAAGGTPSQPGASS | 198 | 746 | 1990 | 285 | 282 | 275 | 133 | 293 | 171 | 327 | 131
GTDNKAAAGETPSQS | 359 | 34300 | 208 | 168 | 242 | 81.7 | 700 | 1230 | 128 | 151 | 74.9
GKEKKAAAGGTPSQS | 176 | 233 | 1780 | 2130 | 2000 | 108 | 75.1 | 544 | 106 | 107 | 77.2
TPPSGTDKKAAAGEA | 17300 | 33400 | 5360 | 23900 | 2610 | 478 | 307 | 434 | 339 | 2600 | 201
GTENKAAAGGTPSQS | 347 | 584 | 2960 | 1090 | 1590 | 213 | 483 | 1810 | 317 | 285 | 111
PSGTDNKTAAGETPS | 5420 | 37000 | 542 | 459 | 696 | 143 | 664 | 1080 | 296 | 184 | 211

Sequence | antibody binding signal [1] | antibody binding signal [2] | antibody binding signal [3] | antibody binding signal [4] | antibody binding signal [5] | antibody binding signal [6] | antibody binding signal [7] | antibody binding signal [8] | antibody binding signal [9] | antibody binding signal [10] | antibody binding signal [11]
PSGTENKAAAGETPS | 27800 | 38000 | 2530 | 2670 | 9750 | 1020 | 551 | 250 | 443 | 372 | 279
KDKKAAAGGTPSQSG | 224 | 160 | 1600 | 1550 | 1030 | 146 | 67.7 | 1180 | 118 | 83.7 | 90.1
SGKDKKPAAGGAPSQ | 235 | 376 | 2510 | 935 | 954 | 112 | 105 | 112 | 526 | 73.3 | 85.8
KENKPATGETPSQSG | 20400 | 39300 | 290 | 831 | 28300 | 364 | 624 | 348 | 187 | 2040 | 152
GTEKKPAAGGTPSPP | 161 | 417 | 4490 | 1200 | 1280 | 141 | 979 | 2940 | 226 | 381 | 1630
SGTDNKAATGGTPSQ | 988 | 46100 | 983 | 622 | 212 | 282 | 636 | 1930 | 204 | 204 | 226
TENKPATGGAPSPPG | 16600 | 5980 | 349 | 913 | 3530 | 354 | 1020 | 382 | 128 | 211 | 213
SGKENKTATGETPSQ | 3950 | 14800 | 1700 | 2100 | 17200 | 7030 | 3090 | 232 | 630 | 771 | 198
GKENKAATGGAPSQS | 450 | 13700 | 8580 | 8870 | 18000 | 341 | 117 | 102 | 124 | 94.2 | 197
SGTENKAAAGGAPSP | 6930 | 11200 | 3870 | 703 | 2910 | 316 | 433 | 169 | 333 | 159 | 223
ENKAATGETPSPSGA | 5680 | 20900 | 261 | 183 | 14400 | 207 | 238 | 122 | 118 | 141 | 985
KDKKAATGETPSPSG | 217 | 3250 | 134 | 158 | 6820 | 335 | 95.2 | 79.2 | 192 | 86.5 | 811
GKEKKTAAGEAPSQP | 3040 | 23300 | 1880 | 1810 | 5740 | 233 | 123 | 103 | 440 | 85.1 | 537
STPPSGKDNKAATGG | 4530 | 8480 | 478 | 36300 | 3270 | 298 | 496 | 136 | 154 | 102 | 155
PSGTDKKPATGGTPS | 880 | 27000 | 9920 | 2670 | 2490 | 256 | 598 | 482 | 296 | 1420 | 297
GTEKKPAAGGAPSQP | 247 | 3800 | 4400 | 2040 | 1450 | 150 | 761 | 776 | 112 | 252 | 1620
GTEKKPATGEAPSQS | 31700 | 50100 | 2250 | 1630 | 43400 | 978 | 1570 | 1680 | 460 | 352 | 684
SGTEKKTATGGAPSQ | 226 | 2920 | 2700 | 1860 | 1810 | 346 | 565 | 121 | 119 | 352 | 150
GTDNKAATGETPSQP | 6060 | 43000 | 204 | 207 | 13100 | 115 | 630 | 1600 | 135 | 157 | 123
SGTDKKPAAGETPSP | 4910 | 26900 | 10200 | 924 | 2750 | 131 | 258 | 168 | 470 | 2850 | 447
GKDKKTAAGGTPSPS | 222 | 184 | 3350 | 390 | 1610 | 109 | 86.2 | 304 | 136 | 72.7 | 121
TISTPPSGKEKKTAT | 247 | 242 | 373 | 15700 | 652 | 343 | 502 | 112 | 184 | 120 | 150
PSGTDKKTATGGAPS | 294 | 4130 | 3020 | 2120 | 1740 | 373 | 553 | 129 | 161 | 211 | 249
KAAAGGAPSQSGASS | 183 | 355 | 3390 | 594 | 250 | 192 | 142 | 134 | 92.8 | 371 | 155
PSGKDKKPATGGAPS | 580 | 2470 | 4690 | 4160 | 4140 | 253 | 472 | 86.9 | 99.8 | 77 | 110
GKDKKPAAGGAPSQP | 297 | 2410 | 1380 | 508 | 317 | 95.2 | 82.7 | 163 | 80.8 | 87 | 77
